Experimental data: patent US20230364057A1, “BACTERIAL DNA GYRASE INHIBITORS AND METHODS OF USE THEREOF” (THE FLORIDA INTERNATIONAL UNIVERSITY BOARD OF TRUSTEES, priority 2022, published 2023)

Biological target: human DNA topoisomerase IIα (Homo sapiens (Human), UniProt P11388)
Test: Agarose gel-based inhibition assay against human DNA topoisomerase IIα
Procedure: The standard deviations are calculated according to three independent experiments. (B) Agarose gel-based gyrase inhibition assays for compound 154. […] Lanes 1 and 2 are relaxed and supercoiled plasmid pAB1, respectively. (C) Gyrase-mediated DNA cleavage assays were performed as described in Methods using plasmid pBR322. […] Lanes 2-5 contain 10, 50, 100, 150, and 200 µM of compound 154, respectively. […] . (D) Agarose gel-based inhibition assays against human DNA topoisomerase 2α for compound 154. Lanes 3-6 correspond to 0, 25, 50, and 100 µM of the compound, respectively. Lanes 1 and 2 are relaxed and supercoiled plasmid pAB1, respectively. (E) Human DNA topoisomerase 2α-mediated DNA cleavage assays were performed as described in Materials and Methods using plasmid pBR322. […] Lanes 1-3 contain 50, 100, and 200 µM of compound 154, respectively. Lane 4 contain 100 µM of etoposide (ETP). Lanes 5 and 6 contain DNA samples from the assay mixtures in the absence of etoposide and human DNA topoisomerase 2a, respectively. Symbols Rx, Sc, Nk, and Ln represent relaxed, supercoiled, nicked, and linear DNA, respectively. (F) Compound 154 is a gyrase poison that inhibits E. coli DNA gyrase and Topoisomerase IV. (G) and (H) show molecular models of compound 154 binding to gyrase-DNA complexes. […]
The standard deviations are calculated according to three independent experiments. […]

Chain of human DNA topoisomerase IIα (P11388 whole entry): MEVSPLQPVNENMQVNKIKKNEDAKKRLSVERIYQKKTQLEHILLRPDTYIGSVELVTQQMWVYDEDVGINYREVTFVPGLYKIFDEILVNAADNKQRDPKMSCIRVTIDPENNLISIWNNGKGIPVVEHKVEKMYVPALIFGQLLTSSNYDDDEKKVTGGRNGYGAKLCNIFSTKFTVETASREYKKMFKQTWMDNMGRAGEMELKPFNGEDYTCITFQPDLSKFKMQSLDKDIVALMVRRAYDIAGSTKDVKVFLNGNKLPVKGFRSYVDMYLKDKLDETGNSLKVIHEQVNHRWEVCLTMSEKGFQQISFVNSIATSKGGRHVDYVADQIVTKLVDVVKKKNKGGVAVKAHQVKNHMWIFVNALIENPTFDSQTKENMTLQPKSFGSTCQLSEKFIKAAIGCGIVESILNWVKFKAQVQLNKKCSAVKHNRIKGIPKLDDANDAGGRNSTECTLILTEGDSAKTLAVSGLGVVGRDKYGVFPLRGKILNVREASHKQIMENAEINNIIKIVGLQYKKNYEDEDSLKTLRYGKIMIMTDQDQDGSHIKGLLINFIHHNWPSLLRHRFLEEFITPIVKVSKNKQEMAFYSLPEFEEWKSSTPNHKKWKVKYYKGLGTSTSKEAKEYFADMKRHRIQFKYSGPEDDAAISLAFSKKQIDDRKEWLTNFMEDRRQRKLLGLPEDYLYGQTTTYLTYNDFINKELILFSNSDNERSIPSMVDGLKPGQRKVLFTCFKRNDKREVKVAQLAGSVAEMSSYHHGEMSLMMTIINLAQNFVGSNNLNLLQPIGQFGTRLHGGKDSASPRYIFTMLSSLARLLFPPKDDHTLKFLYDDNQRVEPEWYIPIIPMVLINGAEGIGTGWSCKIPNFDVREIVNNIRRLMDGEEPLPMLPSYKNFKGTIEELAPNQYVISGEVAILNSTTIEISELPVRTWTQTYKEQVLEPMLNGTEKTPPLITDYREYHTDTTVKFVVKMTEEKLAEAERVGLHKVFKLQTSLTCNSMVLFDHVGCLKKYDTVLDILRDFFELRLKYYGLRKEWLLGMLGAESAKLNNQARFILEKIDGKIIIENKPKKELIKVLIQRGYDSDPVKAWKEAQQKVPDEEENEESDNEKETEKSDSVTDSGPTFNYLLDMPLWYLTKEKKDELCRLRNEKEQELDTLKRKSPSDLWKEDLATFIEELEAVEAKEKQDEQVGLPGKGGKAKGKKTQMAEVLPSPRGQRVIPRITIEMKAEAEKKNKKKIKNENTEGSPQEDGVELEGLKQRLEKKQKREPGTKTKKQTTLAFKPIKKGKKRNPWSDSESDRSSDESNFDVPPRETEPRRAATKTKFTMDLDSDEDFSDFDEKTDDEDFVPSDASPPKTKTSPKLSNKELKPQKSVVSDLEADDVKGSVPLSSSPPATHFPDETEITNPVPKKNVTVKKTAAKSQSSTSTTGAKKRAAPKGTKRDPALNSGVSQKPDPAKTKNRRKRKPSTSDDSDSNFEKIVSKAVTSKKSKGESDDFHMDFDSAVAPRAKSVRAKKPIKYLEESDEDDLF

Cc1c(CCC(=O)O)c(=O)oc2c(C)c3occ(-c4ccc(-c5ccccc5)cc4)c3cc12 [Compound 119]
selectivity index (Mtb gyrase over human TopoIIα): 8.3

Cc1c(CCC(=O)O)c(=O)oc2c(C)c3occ(-c4ccc5ccccc5c4)c3cc12 [Compound 124]
selectivity index (Mtb gyrase over human TopoIIα): 39
